# The supplement of paper PMC8728848
# This is one part of the list.
# B1: rCNL (Clitocybe nebularis), B2ZRS9 (protein)
# chain: SITPGTYNITNVAYTNRLIDLTGSNPAENTLIIGHHLNKTPSGYGNQQWTLVQLPHTTIYTMQAVNPQSYVRVRDDNLVDGAALVGSQQPTPVSIESAGNSGQFRIKIPNLGLALTLPSDANSTPIVLGEVDETSTNQLWAFESVSAV
# Columns and labels:
# Assay in all cases: glycan array binding signal (z-score within array); higher = stronger binding
# Details in all cases: glycan notation: IUPAC condensed, linker removed
# Gal3S(b1-4)GlcNAc6S = molecular target: Gal3S(b1-4)GlcNAc6S
# Summary of the method: (§1)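 The binding signal is a Z-score computed within each array. Data were drawn from 3228 arrays in the Consortium for Functional Glycomics database, restricted to those with a known protein sequence. Scores were averaged over arrays of the same protein sequence at different concentrations or buffers, and over linkers, and negative values can be taken as non-binding.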
# [1] = molecular target: Gal3S(b1-4)[Fuc(a1-3)]Glc
# Summary of the method: as §1
# [2] = molecular target: Gal3S(b1-4)[Fuc(a1-3)]Glc6S
# Summary of the method: as §1
# [3] = molecular target: Gal3S(b1-4)[Fuc(a1-3)]GlcNAc
# Summary of the method: as §1
# [4] = molecular target: Gal3S(b1-4)[Fuc(a1-3)]GlcNAc6S
# Summary of the method: as §1
# Gal3S4S(b1-4)GlcNAc = molecular target: Gal3S4S(b1-4)GlcNAc
# Summary of the method: as §1
# Gal3S6S(b1-4)GlcNAc = molecular target: Gal3S6S(b1-4)GlcNAc
# Summary of the method: as §1
# Gal3S6S(b1-4)GlcNAc6S = molecular target: Gal3S6S(b1-4)GlcNAc6S
# Summary of the method: as §1
# Gal4S(b1-4)GlcNAc = molecular target: Gal4S(b1-4)GlcNAc
# Summary of the method: as §1
# Gal4S6S(b1-4)GlcNAc = molecular target: Gal4S6S(b1-4)GlcNAc
# Summary of the method: as §1
# Gal6P(b1-4)GlcNAc = molecular target: Gal6P(b1-4)GlcNAc
# Summary of the method: as §1
# Gal6S(b1-3)GlcNAc = molecular target: Gal6S(b1-3)GlcNAc
# Summary of the method: as §1
# Gal6S(b1-3)GlcNAc6S = molecular target: Gal6S(b1-3)GlcNAc6S
# Summary of the method: as §1
# Gal6S(b1-4)Glc = molecular target: Gal6S(b1-4)Glc
# Summary of the method: as §1
# Gal6S(b1-4)Glc6S = molecular target: Gal6S(b1-4)Glc6S
# Summary of the method: as §1
# Gal6S(b1-4)GlcNAc = molecular target: Gal6S(b1-4)GlcNAc
# Summary of the method: as §1
# Gal6S(b1-4)GlcNAc6S = molecular target: Gal6S(b1-4)GlcNAc6S
# Summary of the method: as §1
# GalNAc(a1-3)Gal = molecular target: GalNAc(a1-3)Gal
# Summary of the method: as §1
# GalNAc(a1-3)GalNAc = molecular target: GalNAc(a1-3)GalNAc
# Summary of the method: as §1
# [5] = molecular target: GalNAc(a1-3)GalNAc(a1-3)Gal(a1-4)Gal(b1-4)GlcNAc
# Summary of the method: as §1
# [6] = molecular target: GalNAc(a1-3)GalNAc(b1-3)Gal(a1-4)Gal(b1-4)Glc
# Summary of the method: as §1
# [7] = molecular target: GalNAc(a1-3)GalNAc(b1-3)Gal(a1-4)Gal(b1-4)GlcNAc
# Summary of the method: as §1
# GalNAc(b1-3)Gal = molecular target: GalNAc(b1-3)Gal
# Summary of the method: as §1
# [8] = molecular target: GalNAc(b1-3)Gal(a1-4)Gal(b1-4)GlcNAc
# Summary of the method: as §1
# [9] = molecular target: GalNAc(b1-3)Gal(a1-4)Gal(b1-4)GlcNAc(b1-3)Gal(b1-4)Glc
# Summary of the method: as §1
# [10] = molecular target: GalNAc(b1-3)Gal(a1-6)Gal(b1-4)Glc
# Summary of the method: as §1
# GalNAc(b1-3)GalNAc = molecular target: GalNAc(b1-3)GalNAc
# Summary of the method: as §1
# GalNAc(b1-3)GlcNAc = molecular target: GalNAc(b1-3)GlcNAc
# Summary of the method: as §1
# GalNAc(b1-4)Gal(b1-4)Glc = molecular target: GalNAc(b1-4)Gal(b1-4)Glc
# Summary of the method: as §1
# GalNAc(b1-4)GlcNAc = molecular target: GalNAc(b1-4)GlcNAc
# Summary of the method: as §1
# [11] = molecular target: GalNAc(b1-4)GlcNAc(b1-2)Man
# Summary of the method: as §1
# [12] = molecular target: GalNAc(b1-4)GlcNAc(b1-2)Man(a1-3)[GalNAc(b1-4)GlcNAc(b1-2)Man(a1-6)]Man(b1-4)GlcNAc(b1-4)GlcNAc
# Summary of the method: as §1
# [13] = molecular target: GalNAc(b1-4)GlcNAc(b1-3)GalNAc(b1-4)GlcNAc
# Summary of the method: as §1
# GalNAc(b1-4)GlcNAc6S = molecular target: GalNAc(b1-4)GlcNAc6S
# Summary of the method: as §1
# GalNAc(b1-6)GalNAc = molecular target: GalNAc(b1-6)GalNAc
# Summary of the method: as §1
# GalNAc3S(b1-4)GlcNAc = molecular target: GalNAc3S(b1-4)GlcNAc
# Summary of the method: as §1
# GalNAc3S(b1-4)GlcNAc3S = molecular target: GalNAc3S(b1-4)GlcNAc3S
# Summary of the method: as §1
# [14] = molecular target: GalNAc3S(b1-4)[Fuc(a1-3)]GlcNAc
# Summary of the method: as §1
# GalNAc4S6S(b1-4)GlcNAc = molecular target: GalNAc4S6S(b1-4)GlcNAc
# Summary of the method: as §1
# GalNAc6S(b1-4)GlcNAc = molecular target: GalNAc6S(b1-4)GlcNAc
# Summary of the method: as §1
# Glc(a1-4)Glc = molecular target: Glc(a1-4)Glc
# Summary of the method: as §1
# [15] = molecular target: Glc(a1-4)Glc(a1-4)Glc(a1-4)Glc
# Summary of the method: as §1
# Glc(a1-6)Glc(a1-6)Glc = molecular target: Glc(a1-6)Glc(a1-6)Glc
# Summary of the method: as §1
# [16] = molecular target: Glc(a1-6)Glc(a1-6)Glc(a1-6)Glc
# Summary of the method: as §1
# Glc(b1-4)Glc = molecular target: Glc(b1-4)Glc
# Summary of the method: as §1
binder,measurement,setting,value
B1,glycan array binding signal (z-score),Gal3S(b1-4)GlcNAc6S,0.003
same,glycan array binding signal (z-score),[1],-0.354
same,glycan array binding signal (z-score),[2],-0.277
same,glycan array binding signal (z-score),[3],-0.227
same,glycan array binding signal (z-score),[4],-0.22
same,glycan array binding signal (z-score),Gal3S4S(b1-4)GlcNAc,-0.218
same,glycan array binding signal (z-score),Gal3S6S(b1-4)GlcNAc,-0.299
same,glycan array binding signal (z-score),Gal3S6S(b1-4)GlcNAc6S,-0.283
same,glycan array binding signal (z-score),Gal4S(b1-4)GlcNAc,-0.298
same,glycan array binding signal (z-score),Gal4S6S(b1-4)GlcNAc,-0.304
same,glycan array binding signal (z-score),Gal6P(b1-4)GlcNAc,-0.219
same,glycan array binding signal (z-score),Gal6S(b1-3)GlcNAc,-0.224
same,glycan array binding signal (z-score),Gal6S(b1-3)GlcNAc6S,-0.215
same,glycan array binding signal (z-score),Gal6S(b1-4)Glc,-0.225
same,glycan array binding signal (z-score),Gal6S(b1-4)Glc6S,-0.282
same,glycan array binding signal (z-score),Gal6S(b1-4)GlcNAc,-0.301
same,glycan array binding signal (z-score),Gal6S(b1-4)GlcNAc6S,0.207
same,glycan array binding signal (z-score),GalNAc(a1-3)Gal,1.42
same,glycan array binding signal (z-score),GalNAc(a1-3)GalNAc,0.148
same,glycan array binding signal (z-score),[5],0.649
same,glycan array binding signal (z-score),[6],-0.001
same,glycan array binding signal (z-score),[7],0.16
same,glycan array binding signal (z-score),GalNAc(b1-3)Gal,1.25
same,glycan array binding signal (z-score),[8],1.05
same,glycan array binding signal (z-score),[9],0.825
same,glycan array binding signal (z-score),[10],1.36
same,glycan array binding signal (z-score),GalNAc(b1-3)GalNAc,-0.309
same,glycan array binding signal (z-score),GalNAc(b1-3)GlcNAc,4.24
same,glycan array binding signal (z-score),GalNAc(b1-4)Gal(b1-4)Glc,-0.217
same,glycan array binding signal (z-score),GalNAc(b1-4)GlcNAc,6.23
same,glycan array binding signal (z-score),[11],6.09
same,glycan array binding signal (z-score),[12],0.998
same,glycan array binding signal (z-score),[13],7.74
same,glycan array binding signal (z-score),GalNAc(b1-4)GlcNAc6S,4.96
same,glycan array binding signal (z-score),GalNAc(b1-6)GalNAc,-0.227
same,glycan array binding signal (z-score),GalNAc3S(b1-4)GlcNAc,-0.223
same,glycan array binding signal (z-score),GalNAc3S(b1-4)GlcNAc3S,-0.224
same,glycan array binding signal (z-score),[14],-0.22
same,glycan array binding signal (z-score),GalNAc4S6S(b1-4)GlcNAc,-0.228
same,glycan array binding signal (z-score),GalNAc6S(b1-4)GlcNAc,7.28
same,glycan array binding signal (z-score),Glc(a1-4)Glc,-0.308
same,glycan array binding signal (z-score),[15],-0.217
same,glycan array binding signal (z-score),Glc(a1-6)Glc(a1-6)Glc,-0.288
same,glycan array binding signal (z-score),[16],-0.213
same,glycan array binding signal (z-score),Glc(b1-4)Glc,-0.31
